# Measured values reported in PubChem BioAssay AID588591 (National Center for Advancing Translational Sciences (NCATS), 2011).
# Values joined by “and” are separate entries in the source; they are usually repeats but may differ in a detail not shown here. Equal entries are not always repeated. Screen size: about 390,000 compounds; about 4,700 (1.2%) were called active. Inconclusive results, whose numbers are uncertain, are shown with a selection of clear calls. Calls come from the whole dose curve; as a rule, active = well fitted inhibition curve with a large enough effect; inconclusive = small, poorly fitted or top-dose-only effect, or another doubt; inactive = no such curve, though single readings can be large or run the other way. Potencies beside an inconclusive call are fits to weak or partial responses and may not hold up.
# Target: DNA polymerase eta (Homo sapiens) (UniProt Q9Y253)
# Experiment: qHTS for Inhibitors of Polymerase Eta
# Conditions: recombinant Pol eta, fluorescent DNA replication assay; series mostly up to 114 µM
# Method in brief: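 Pol eta (10 nM) was preincubated with compounds for 15 min at room temperature, after which fluorescent replication substrate (50 nM final) was added to start the reaction. Fluorescence was read kinetically at 0 and 10 min.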
# Potency is the fitted concentration of half-maximal effect; tags give direction and shape of the fitted curve.
# Chain of UniProt Q9Y253 (Q9Y253 whole entry, looked up): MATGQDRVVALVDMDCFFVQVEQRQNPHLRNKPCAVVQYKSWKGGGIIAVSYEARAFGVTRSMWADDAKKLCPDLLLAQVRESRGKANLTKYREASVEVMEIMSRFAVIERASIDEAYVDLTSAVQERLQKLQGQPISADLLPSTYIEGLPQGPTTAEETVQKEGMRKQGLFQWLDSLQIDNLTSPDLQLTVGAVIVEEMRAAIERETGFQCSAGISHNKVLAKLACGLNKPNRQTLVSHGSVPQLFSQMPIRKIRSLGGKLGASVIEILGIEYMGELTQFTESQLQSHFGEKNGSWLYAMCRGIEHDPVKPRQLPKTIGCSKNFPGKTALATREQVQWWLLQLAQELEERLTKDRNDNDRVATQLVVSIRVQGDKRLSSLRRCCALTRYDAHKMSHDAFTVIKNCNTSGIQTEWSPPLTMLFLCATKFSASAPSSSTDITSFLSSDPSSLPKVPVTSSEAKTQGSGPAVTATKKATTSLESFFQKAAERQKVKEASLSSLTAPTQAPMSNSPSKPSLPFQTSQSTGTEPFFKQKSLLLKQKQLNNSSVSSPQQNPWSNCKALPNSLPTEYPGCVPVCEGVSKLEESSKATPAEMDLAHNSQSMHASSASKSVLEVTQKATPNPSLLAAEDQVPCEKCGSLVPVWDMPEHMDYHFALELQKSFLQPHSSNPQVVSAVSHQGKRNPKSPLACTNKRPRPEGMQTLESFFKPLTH
row,Structure (SMILES),Potency
1,CCOc1ccc(NC(=O)CN2C(=O)CSC2=O)cc1,"inconclusive: 112 µM [inhibitor, partial curve, poor fit]"
2,Cc1ccc(NC(=O)c2ccc(Nc3c([N+](=O)[O-])cc([N+](=O)[O-])cc3[N+](=O)[O-])cc2)cc1,"inconclusive: 3.16 µM [inhibitor, partial curve, poor fit]"
3,CCCCCCc1c(C)c2ccc(OCC(=O)N3CCC[C@H]3C(=O)O)c(C)c2oc1=O,active: 79.4 µM
4,O=C(c1ccc(Cl)c(Cl)c1)c1cc(-c2ccccn2)c(N2CCOCC2)s1,"inconclusive: 28.2 µM [inhibitor, partial curve, poor fit]"
5,C=CCn1c(=NC(=O)c2ccco2)sc2cc(C(=O)OCC)ccc21,"inconclusive: 17.8 µM [inhibitor, partial curve, poor fit]"
6,CCOCCn1c(=O)c2c(nc3n2CCN3c2ccc(C)c(C)c2)n(C)c1=O,inactive
7,CC(C)n1c(SC2CCOC2=O)nc2ccccc21 (configuration not stated),"inconclusive: 31.6 µM [inhibitor, single point]"
8,CC(=O)Nc1c(C(=O)O)[nH]c2ccccc12,inactive
9,COc1cccc(-c2nc(CS(=O)(=O)CC(=O)NCCc3ccc(Cl)cc3)c(C)o2)c1,inactive
10,Cc1ccc(-n2ncc3c(Nc4cccc(C(F)(F)F)c4)ncnc32)cc1C,inactive
11,CC(CCN1CCN(c2ccc(F)cc2)CC1)c1ccccc1 (configuration not stated),inactive
12,O=C(Nc1ccc([N+](=O)[O-])cc1)C1CC1(c1ccccc1)c1ccccc1 (configuration not stated),"inconclusive: 100 µM [inhibitor, single point]"
13,O=C(CCC1CCN(C(=O)C2CC=CCC2)CC1)Nc1ccccc1 (configuration not stated),inactive
14,CN(C)c1ccc(/C=N/N=C2/NC(=O)/C(=C/c3ccc([N+](=O)[O-])cc3)S2)cc1,"inconclusive: 25.1 µM [inhibitor, single point]"
15,Cc1ccc(Cl)cc1N1CCN(C(=O)c2ccc3c(c2)N(Cc2ccccc2)CCS3)CC1,inactive
16,COc1ccc(CC2=CC(=O)c3ccccc3C2=O)cc1,"inconclusive: 89.1 µM [inhibitor, single point]"
17,CCOc1ccc(Br)cc1S(=O)(=O)Nc1cccc(-c2ccc(OC)nn2)c1,inactive
18,COC1=C(N)C(=O)c2nc(-c3nc(C(=O)O)c(C)c(-c4ccc(OC)c(OC)c4O)c3N)ccc2C1=O,active: 3.55 µM
19,O=C(Nc1nc2c(F)c(F)c(F)cc2s1)c1ccco1,inactive
20,O=C1CCCC/C1=C/Nc1ccc2c(c1)OCO2,"inconclusive: 20 µM [inhibitor, single point]"
21,COc1ccc(C=NNC(=S)NC23CC4CC(CC(C4)C2)C3)cc1OC,"inconclusive: 0.631 µM [inhibitor, full curve, poor fit]"
22,COc1ccccc1CNC(=O)C(CC(C)C)NC(=O)C1CCC(C)CC1 (configuration not stated),inactive
23,O=C1/C(=C\c2cc(Br)cc(Br)c2O)SC(=S)N1Cc1ccccc1,active: 79.4 µM

row,Structure (SMILES),Potency
1,Cc1ccc(OCC(=O)N(C)CC(=O)NCc2ccco2)c(Br)c1,active: 14.1 µM
2,Cc1no[n+]([O-])c1COc1ccccc1/C=C1\NC(=S)NC1=O,"inconclusive: 20 µM [inhibitor, partial curve]"
3,Nc1nc(Sc2ccc([N+](=O)[O-])c3nonc23)c2[nH]cnc2n1,"inconclusive: 6.31 µM [inhibitor, full curve, poor fit]"
4,CCc1cccc(C)c1NC(=O)c1cnn(-c2ccc(OC)cc2)c1C1CCN(C(=O)OC(C)(C)C)CC1,inactive
5,Cc1cc(C)c2nc(N3C(=O)C(O)=C(C(=O)c4ccco4)C3c3cccc(O)c3)sc2c1 (configuration not stated),"inconclusive: 50.1 µM [inhibitor, partial curve]"
6,CC(=O)Nc1cccc(NC(=O)CCn2cnc3cc(C)c(C)cc32)c1,"inconclusive: 25.1 µM [inhibitor, partial curve, poor fit]"
7,COc1ccccc1C(=O)NC(=O)COC(=O)c1nccnc1N,active: 17.8 µM
8,O=C(CN1C(=O)C2CC=CCC2C1=O)Nc1nnc(SCc2c(Cl)cccc2Cl)s1 (configuration not stated),"inconclusive: 39.8 µM [inhibitor, partial curve, poor fit]"
9,CN(Cc1ccco1)S(=O)(=O)c1nnc(NC(=O)c2ccccc2Cl)s1,active: 79.4 µM and active: 50.1 µM
10,O=C(/C=C/c1ccc(O)c(O)c1)OC1C(O)CC(OC(=O)/C=C/c2ccc(O)c(O)c2)(C(=O)O)CC1O (configuration not stated),"inconclusive: 20 µM [inhibitor, full curve]"
11,CN(c1ccccc1)c1ccc(/C=C/[N+](=O)[O-])cc1,"inconclusive: 35.5 µM [inhibitor, partial curve, poor fit]"
12,C=CCn1c(COc2cccc(C)c2)nnc1SCC(=O)NC(=O)NCc1ccco1,"inconclusive: 79.4 µM [inhibitor, partial curve]"
13,CSc1nsc(/C=C/Nc2ccc(C(=O)O)cc2)c1C#N,active: 28.2 µM
14,C[C@H](CO)N1C[C@H](C)[C@@H](CN(C)C(=O)Nc2ccc3c(c2)OCO3)Oc2c(NC(=O)Nc3ccc(C(F)(F)F)cc3)cccc2C1=O,"inconclusive: 35.5 µM [inhibitor, partial curve, poor fit]"
15,COc1ccc(CCNC(=O)c2cc(=O)c3ccc(C)cc3o2)cc1OC,inactive
16,COc1cc(/C=N/NC(=O)c2cccnc2)ccc1OCC(=O)Nc1ccc(C)cc1,"inconclusive: 79.4 µM [inhibitor, partial curve]"
17,Cc1ccc(OCCC(=O)OCC(=O)Nc2ccc(Cl)cn2)cc1,active: 15.8 µM
18,CC(C)Sc1nnc(NC(=O)c2ccco2)s1,active: 89.1 µM
19,COc1ccc(/C=C2\SC(=S)N(CCC(=O)Nc3ccc(C(=O)O)cc3)C2=O)cc1OC,active: 31.6 µM
20,O=C(Nc1cccc2nsnc12)C1CC(=O)N(c2ccccc2)C1 (configuration not stated),"inconclusive: 25.1 µM [inhibitor, partial curve, poor fit]"
21,CC(=O)Nc1ccc(NC(=O)CCCCCn2nnc3ccccc3c2=O)cc1,inactive
22,c1ccc2c(NCCc3c[nH]c4ccccc34)c3ccccc3nc2c1,"inconclusive: 17.8 µM [inhibitor, partial curve, poor fit]"
23,Nc1c(C(=O)Nc2nccs2)sc2nc(-c3cccs3)cc(C(F)(F)F)c12,"inconclusive: 35.5 µM [inhibitor, single point]"

row,Structure (SMILES),Potency
1,O=C(O)COc1cccc2nsnc12,"inconclusive: 20 µM [inhibitor, partial curve]"
2,Cc1sc2ncnc(SCc3ccc(C(=O)O)cc3)c2c1C,"inconclusive: 35.5 µM [inhibitor, partial curve, poor fit]"
3,C/C(CC(=O)Nc1ccc(N(C)C)cc1)=N\NC(=O)Cc1csc(N)n1,"inconclusive: 28.2 µM [inhibitor, single point]"
4,O=C(Nc1ncccc1O)c1cc2ccccc2o1,"inconclusive: 17.8 µM [inhibitor, partial curve]"
5,CC1CCCC(C)N1C(=O)COC(=O)/C=C/c1ccco1 (configuration not stated),"inconclusive: 35.5 µM [inhibitor, partial curve, poor fit]"
6,CCCN1CCN(S(=O)(=O)c2ccc3c(c2)NC(=O)C(C)C(=O)N3)CC1 (configuration not stated),"inconclusive: 79.4 µM [inhibitor, partial curve]"
7,O=C(Cc1ccc(Cl)cc1)Nc1cccc(C(=O)Nc2ccccc2C(=O)O)c1,"inconclusive: 35.5 µM [inhibitor, single point]"
8,CC1(C)CC(=O)C(C(C2=C(O)CC(C)(C)CC2=O)c2ccco2)C(=O)C1 (configuration not stated),"inconclusive: 31.6 µM [inhibitor, partial curve]"
9,Cn1cnc([N+](=O)[O-])c1S(=O)(=O)Oc1ccc(Cl)cc1,inactive
10,CCCCCCCCC/C(=N\O)c1ccccn1,"inconclusive: 89.1 µM [inhibitor, partial curve, poor fit]"
11,Cc1ccc(S(=O)(=O)N2[C@@H](c3ccc(Br)cc3)C(C(=O)O)=CC[C@H]2c2ccc(Cl)c(Cl)c2)cc1,active: 89.1 µM
12,CC(=O)N1CCOc2ccc(S(=O)(=O)NCc3ccc(F)cc3)cc21,active: 56.2 µM
13,C=C(C)Cn1c(SCC(=O)NCc2ccco2)nc2sc3c(c2c1=O)CCC3,"inconclusive: 22.4 µM [inhibitor, single point]"
14,COc1ccc(N2Cc3cccc(C(=O)Nc4ccc(Cl)cc4)c3C2=O)cc1,"inconclusive: 89.1 µM [inhibitor, partial curve]"
15,CC(=O)c1ccc(S(=O)(=O)N(CCCO)Cc2cc3cc(C)ccc3[nH]c2=O)cc1,active: 50.1 µM
16,CCOc1ccc(C(Nc2cccnc2)c2cc(Cl)c3cccnc3c2O)cc1 (configuration not stated),"inconclusive: 89.1 µM [inhibitor, partial curve, poor fit]"
17,N#Cc1cccc(NC(=O)CNC(=O)Cc2ccccc2)c1,"inconclusive: 35.5 µM [inhibitor, partial curve, poor fit]"
18,Cc1ccc(N=Nc2ccc(N)cc2C)c(S(N)(=O)=O)c1,"inconclusive: 15.8 µM [inhibitor, full curve, poor fit]"
19,COc1ccccc1/C=C\C=N\n1c(C2CCCCC2)n[nH]c1=S,"inconclusive: 31.6 µM [inhibitor, partial curve, poor fit]"
20,COc1ccc(CN([C@H](C)CO)S(=O)(=O)N(Cc2ccccc2)[C@H](CO)C(C)C)cc1,"inconclusive: 89.1 µM [inhibitor, single point]"
21,COc1ccc(NC(=O)Cn2cc(C(=O)c3ccncc3)c(=O)c3cc(C)ccc32)cc1Cl,"inconclusive: 70.8 µM [inhibitor, single point]"
